Data taken from PubChem BioAssay (NCATS).
Values joined by “and” are separate entries in the source; they are usually repeats but may differ in a detail not shown here. Equal values may be shown once. The inconclusive results got no clear call from the source; some entries with a clear call stand among them for comparison. Where the call is inconclusive, the potency comes from a doubtful curve fit. Active and inactive are the calls of the source. Calls follow the shape of the dose curve; as a rule, active = well fitted cell-killing curve with a large enough effect; inconclusive = small, poorly fitted or top-dose-only effect, or effect the other way; inactive = no such curve, though single readings can be large or run the other way.

Columns and labels:
[1] = Viability qHTS for spleen associated tyrosine kinase inhibitor (SYKi) naive MV4-11 cells (AID 1963823); details: MV4-11 AML viability, CellTiter-Glo luminescence, 72 h; viability (% of control): at 45 µM (top of the series); also: nearly all actives have a fitted effect of over 40% in size
How it was run: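 Compounds were dispensed acoustically onto plates, MV4-11 cells (SYKi-naive) added at 500 per well, and plates incubated 72 hr at 37 C. CellTiter-Glo was added and luminescence measured after 10 min.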

[2] = Viability qHTS for spleen associated tyrosine kinase inhibitor (SYKi) drug resistant MV4-11 cells (AID 1963824); details: SYKi-resistant MV4-11 viability, CellTiter-Glo, 72 h; series mostly up to 45 µM; also: nearly all actives have a fitted effect of over 35% in size
How it was run: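 CellTiter-Glo luminescence, read 10 min after reagent addition, reports viability after a 72 hr compound exposure. Cells are an MV4-11 line made resistant to SYK inhibition, seeded at 500 per well onto compound-containing plates.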
Potency is read from the fitted curve at half-maximal effect; tags tell the direction and shape of the fitted curve.

| Structure (SMILES) | Potency [1] | Potency [2] | viability (% of control) [1] | viability, % of control [2] |
| --- | --- | --- | --- | --- |
| COc1cc2c3c(n(CCCNCCO)c(=O)c2cc1OC)-c1cc2c(cc1C3=O)OCO2 | inconclusive: 0.0468 µM [cytotoxic, full curve] | inconclusive: 0.0468 µM [cytotoxic, full curve] |  |  |
| Cn1c(SCC(=O)N2CCC[C@H]2C(=O)Nc2ccccc2-c2ccccc2)nc2ccccc21 | inconclusive: 14.6 µM [cytotoxic, partial curve] | inconclusive: 18.4 µM [cytotoxic, single point] |  |  |
| C=C1C[C@@]2(O)O[C@@]3(C[C@H]2C(C)C)[C@@H](C)CC[C@@H]13 | inactive | inactive |  |  |
| COc1ccccc1OCCN1CC(COc2cccc3[nH]c4ccccc4c23)OCC1=O (configuration not stated) | inconclusive: 18.4 µM [cytotoxic, partial curve] | inconclusive: 16.4 µM [cytotoxic, partial curve] |  |  |
| COc1c(OC2OC(CO)C(O)C(O)C2O)ccc(O)c1C(=O)OCc1ccccc1O[C@@H]1O[C@H](CO)[C@@H](O)[C@H](O)[C@H]1O (some centres not stated) | inactive | inactive |  |  |
| C/C=C(/C)C(=O)O[C@@H]1C[C@@H](OC(=O)CC(C)C)C2(C)C3C(=O)C=C(C)C2C3C1(C)C (some centres not stated) | inconclusive: 10 µM [cytotoxic, partial curve, poor fit] | inconclusive: 8.93 µM [cytotoxic, single point] |  |  |
| CC1(C)[C@@H](O)CC[C@]2(C)[C@H]3C(=O)C=C4[C@@H]5C[C@@](C)(C(=O)O)CC[C@]5(C)CC[C@@]4(C)[C@]3(C)CC[C@@H]12 | inactive | inconclusive: 18.4 µM [cytotoxic, single point] and inconclusive: 23.5 µM [cytotoxic, partial curve] |  |  |
| CO/N=C1\CN(c2nc3c(cc2F)c(=O)c(C(=O)O)cn3C2CC2)CC1CN (configuration not stated) | inconclusive: 21.1 µM [cytotoxic, partial curve] | inconclusive: 15 µM [cytotoxic, partial curve, poor fit] |  |  |
| NCCC(O)(P(=O)(O)O)P(=O)(O)O | inactive | inactive |  |  |
| C=C1[C@H]2CCC3[C@]4(C)CCC[C@@](C)(C(=O)O)C4CC[C@]3(C2)[C@H]1OC(C)=O (some centres not stated) | inactive | inconclusive: 10.1 µM [cytotoxic, partial curve, poor fit] |  |  |
| CCOc1ccc(-c2ccc(Cn3c(CC(C)(C)C(=O)O)c(SC(C)(C)C)c4cc(OCc5ccc(C)cn5)ccc43)cc2)cn1 | inconclusive: 16.4 µM [cytotoxic, single point] and inactive | inconclusive: 18.4 µM [cytotoxic, single point] and inconclusive: 18.4 µM [cytotoxic, partial curve] |  |  |
| CCNC(=O)NCCCOc1cccc(CN2CCCCC2)c1 | inconclusive: 33.5 µM [cytotoxic, single point] | inactive |  |  |
| CC(=O)OC(CSC1CCC(=O)OC(C)CCC(=O)C1)C(=O)O (configuration not stated) | inactive | inconclusive: 10.1 µM [cytotoxic, single point] |  |  |
| COc1ccc(C2=N[C@@H](c3ccc(Cl)cc3)[C@@H](c3ccc(Cl)cc3)N2C(=O)N2CCNC(=O)C2)c(OC(C)C)c1 | active: 20.6 µM | active: 10.3 µM |  |  |
| C=C1CC[C@H]2[C@@H](/C=C(\C)C(=O)[C@@]3(OC(C)=O)C[C@H](C)[C@H](OC(C)=O)[C@@H]3[C@H]1OC(C)=O)C2(C)C | inconclusive: 11.2 µM [cytotoxic, single point] | inconclusive: 10 µM [cytotoxic, partial curve] |  |  |
| C=C1CCC2C(C)(C(=O)OC)CCCC2(C)C1CCC1=CCOC1=O (configuration not stated) | inconclusive: 11.4 µM [cytotoxic, single point] | inconclusive: 14.3 µM [cytotoxic, partial curve] |  |  |
| CC[C@H](NC(=O)[C@H](CS(=O)(=O)CC1CC1)N[C@@H](c1ccc(F)cc1)C(F)(F)F)C(=O)C(=O)NC1CC1 | inconclusive: 920 nM [cytotoxic, partial curve, poor fit] and inconclusive: 7.42 µM [cytotoxic, partial curve] | inactive and inconclusive: 18.6 µM [cytotoxic, single point] |  |  |
| CCC(C)C(=O)O[C@H]1C[C@](C)(O)[C@]23OC(C)(C)[C@H](C[C@H](OC(=O)c4ccccc4)[C@]2(COC(C)=O)[C@H]1OC(=O)C(C)CC)[C@H]3OC(C)=O (some centres not stated) | inconclusive: 9.68 µM [cytotoxic, single point] | inconclusive: 8.62 µM [cytotoxic, single point] |  |  |

| Structure (SMILES) | Potency [1] | Potency [2] | viability (% of control) [1] | viability, % of control [2] |
| --- | --- | --- | --- | --- |
| CC[C@@H](C)[C@@H]1OC2(C=C[C@H]1C)C[C@@H]1C[C@H](C/C=C(\C)[C@H](O[C@H]3C[C@H](OC)[C@H](O[C@H]4C[C@H](OC)[C@H](NC(C)=O)[C@H](C)O4)[C@H](C)O3)[C@H](C)/C=C/C=C3\CO[C@H]4[C@H](O)C(C)=C[C@@H](C(=O)O1)[C@@]34O)O2 (some centres not stated) | inconclusive: 3.21 µM [cytotoxic, full curve] | active: 2.27 µM |  |  |
| C[C@@H]1C(=O)O[C@H]2[C@H]1CC[C@@]1(C)C(=O)C=C[C@@](C)(O)[C@H]21 | inconclusive: 0.0041 µM [cytotoxic, single point] | inactive |  |  |
| CC(=O)OCC(Cc1ccccc1)NC(=O)C(Cc1ccccc1)NC(=O)c1ccccc1 (configuration not stated) | inactive | inactive |  |  |
| CC(/C=C/[C@]1(O)[C@@]2(C)CO[C@@]1(C)C[C@@H](O)C2)=C\C(=O)O[C@@H]1O[C@H](CO)[C@@H](O)[C@H](O)[C@H]1O | inactive | inactive |  |  |
| CC(C(O)c1ccc(O)cc1)N1CCC(Cc2ccccc2)CC1 (configuration not stated) | inconclusive: 21.1 µM [cytotoxic, single point] and inactive | inconclusive: 15 µM [cytotoxic, partial curve] and inconclusive: 10 µM [cytotoxic, single point] |  |  |
| COc1ccc(S(=O)(=O)Nc2nc(-c3cccc([N+](=O)[O-])c3)cs2)cc1OC | inactive | inconclusive: 5.8 µM [cytotoxic, partial curve, poor fit] |  |  |
| C=CC(C)(O)CC/C=C(\C)C(=O)OCC1OC(OC2CCC3(C)C(CCC4(C)C3CC=C3C5CC(C)(C)C(O)CC5(C(=O)O)CCC34C)C2(C)C)C(O)C(OC2OC(CO)C(O)C(OC3OC(CO)C(O)C(OC4OC(COC5OC(CO)C(O)C(O)C5O)C(O)C(O)C4O)C3O)C2O)C1O (configuration not stated) |  |  | inactive: 99.5% [at 9.25 µM] | inactive: 108% [at 9.25 µM] |
| CC1C(=O)OCC2=CCN3CCC(OC(=O)C(C)(O)C1(C)O)C23 (configuration not stated) | inactive | inactive |  |  |
| CC(C)CC1NC(=O)C(C(C)c2ccccc2)NC(=O)C(C(C)C)NC(=O)C(C)NC(=O)CCCNC(=O)C(Cc2c[nH]c3ccccc23)NC(=O)C(C)NC1=O (configuration not stated) | inactive | inactive |  |  |
| CC1(C)CC23[C@@H]4CC(=O)[C@@H]2COC(=O)[C@@H]3CC[C@H]41 | inconclusive: 4.61 µM [cytotoxic, full curve, poor fit] | active: 1.64 µM |  |  |
| CC1OC(OC2C(CO)OC(OCC3OC(OC(=O)C45CCC(C)(C)CC4C4=CCC6C7(C)CCC(OC8OC(CO)C(O)C(OC9OC(CO)C(O)C(O)C9O)C8O)C(C)(C)C7CCC6(C)C4(C)CC5)C(O)C(O)C3O)C(O)C2O)C(O)C(O)C1OC1OC(CO)C(O)C(O)C1O (configuration not stated) | inconclusive: 0.0022 µM [rising, full curve, poor fit] |  |  | inactive: 88.5% [at 9.25 µM] |
| CC1(C)CC[C@]2(C(=O)O[C@@H]3O[C@H](CO)[C@@H](O)[C@H](O)[C@H]3O)CC[C@]3(C)C(=CCC4[C@@]5(C)CC[C@H](O[C@@H]6O[C@H](C(=O)O)[C@@H](O)[C@H](O)[C@H]6OC6OC(CO)C(O)C(O)C6O)C(C)(C)C5CC[C@]43C)[C@@H]2C1 (some centres not stated) |  |  | inactive: 89.4% [at 9.25 µM] | inactive: 91% [at 9.25 µM] |
| CC(=O)O[C@@H]1[C@H](O[C@@H]2O[C@H](CO)[C@@H](O)[C@H](O)[C@H]2O)[C@@H](O[C@@H]2O[C@@H](C)[C@H](O)[C@@H](O[C@@H]3O[C@H](CO)[C@@H](O)[C@H](O)[C@H]3O)[C@H]2O)[C@H](OC(=O)[C@]23CCC(C)(C)C[C@H]2C2=CCC4[C@@]5(C)C[C@H](O)[C@H](O[C@@H]6O[C@H](C(=O)O)[C@@H](O)[C@H](O)[C@H]6O)[C@@](C)(C(=O)O)C5CC[C@@]4(C)[C@]2(C)CC3)O[C@@H]1C (some centres not stated) |  |  | inactive: 81.2% [at 9.25 µM] | inactive: 91.2% [at 9.25 µM] |
| NC(=O)c1cn(Cc2c(F)cccc2F)nn1 | inactive | inactive |  |  |
| CCCOc1ccc(-c2nc(OC)c3ccccc3n2)cc1 | inactive | inactive |  |  |
| CCN(CC)C(=O)C1CN2CCc3cc(OC)c(OC)cc3C2CC1OC(C)=O (configuration not stated) | inconclusive: 0.596 µM [cytotoxic, partial curve, poor fit] | inactive |  |  |
| CS(=O)(=O)CCNCc1nc(-c2ccc3ncnc(Nc4ccc(OCc5cccc(F)c5)c(Cl)c4)c3c2)cs1 | inconclusive: 2.66 µM [cytotoxic, single point] | inconclusive: 4.22 µM [cytotoxic, partial curve, poor fit] |  |  |
| CC1=CC(=O)[C@H]2C(C)(C)CCC[C@]2(C)[C@@]1(O)CO | inconclusive: 23.1 µM [cytotoxic, partial curve, poor fit] | inconclusive: 20.6 µM [cytotoxic, single point] |  |  |
